Out of some 420,000 compounds screened, about 50,000 (12%) were called active. Inconclusive means that the source gave no clear call. Such entries were picked first, then a sample of the others. Calls come from the whole dose curve; as a rule, active = well fitted inhibition curve with a large enough effect; inconclusive = small, poorly fitted or top-dose-only effect; inactive = flat fitted curve, though single readings scatter. No potency is given beside an inconclusive call; the fits are too rough.
Test: qHTS for Inhibitors of human tyrosyl-DNA phosphodiesterase 1 (TDP1): qHTS in cells in presence of CPT; note: nearly all actives have a fitted effect of over 55% in size
Details: chicken DT40 Tdp1-/-;hTDP1 cells + 20 nM CPT, ATP luminescence, 48 h; activity change, negative = growth inhibition: at 46.2 µM (top of the series) unless noted
Method in brief: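 Chicken DT40 Tdp1-/- cells complemented with human TDP1, 400 cells/well, exposed to compounds plus 20 nM camptothecin for at least 48 h at 37 C; viability read as ATP content by CellTiter-Glo luminescence.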
% is set by controls: 0 for no effect and ±100 for the full control effect; potency is the fitted concentration of half-maximal effect; tags give direction and shape of the fitted curve.

| Compound | Potency | activity change, negative = growth inhibition |
| --- | --- | --- |
| COC(=O)c1ccc(Cl)cc1NC(=O)NCc1c(-n2cccc2)sc2c1CCCC2 | inconclusive [inhibitor, single point] | – |
| COc1ccc(S(=O)(=O)NCC2CCC(C(=O)NCc3ccco3)CC2)cc1 (stereo not given) | inconclusive [inhibitor, single point] | – |
| COc1ccc(-n2ccnc2SCC(=O)c2c(N)n(C3CC3)c(=O)[nH]c2=O)cc1 | – | inactive: -5.76% |
| COc1ccccc1CNc1nc(-c2cccnc2)nc2ccccc12 | inconclusive [inhibitor, single point] | – |
| Cc1ccc(-c2nn3c(C)nnc3c3ccccc23)cc1S(=O)(=O)N(C)CCO | inconclusive [inhibitor, single point] | – |
| C=CCOc1ccccc1CN1CCC(Cc2ccccc2)CC1 | inconclusive [inhibitor, single point] | – |
| O=C(CNC(=O)c1ccc(S(=O)(=O)N2CCCC2)cc1)N/N=C/c1ccccc1Cl | inconclusive [inhibitor, single point] | – |
| Cc1ccc(CNC(=O)Cn2ncc3c([nH]c4ccc(C)cc43)c2=O)cc1 | – | inactive: -4.08% |
| c1ccc(Cn2ncc3c(N4CCCCC4)ncnc32)cc1 | inconclusive [inhibitor, partial curve] | – |
| CC(=O)Nc1ccc(NC2=Nc3ccccc3N3C2=Nc2c(c(C)nn2-c2ccccc2)C3c2ccccc2)cc1 (stereo not given) | active: 2.59 µM | – |
| CN1CSC2=C(C#N)C(c3cccc(OCc4ccccc4)c3)CC(=O)N2C1 (stereo not given) | active: 20.6 µM | – |
| C=CCNC(=O)c1ccccc1NC(=O)c1ccc(Cl)c(S(=O)(=O)Nc2cc(C)ccc2C)c1 | active: 18.4 µM | – |
| Cc1nnc(Cc2ccco2)c2n[nH]c(C)c12 | inconclusive [inhibitor, single point] | – |
| COc1cc(C(=O)NCCCN2CCCC2=O)ccc1OCc1ccc(Cl)cc1Cl | active: 13 µM | – |
| CN1C(=O)c2c(sc3c2CC(C)(C)SC3)N2CCN=C12 | active: 20.6 µM | – |
| CC(C)(C)c1ccc(OCCC(=O)NCC(c2cccs2)N2CCOCC2)cc1 (stereo not given) | – | inactive: -16.1% |
| COc1cccc(N2CCN(C(=O)c3cc4c(=O)n(Cc5cccs5)ccc4nc3C)CC2)c1 | active: 23.1 µM | – |
| COc1ccc(SCC(O)Cn2c3ccccc3c3ccccc32)c(OC)c1 (stereo not given) | inconclusive [inhibitor, single point] | – |
| CC(C)NC(=S)N/N=C1\CCCCC1C1CCCCC1 (stereo not given) | active: 5.8 µM | – |
| CN(C)CCCn1c(N)c(S(=O)(=O)c2ccccc2)c2nc3ccccc3nc21 | active: 18.4 µM | – |
| CCN(CC)S(=O)(=O)c1ccc2oc(Nc3ccc(OC)cc3OC)nc2c1 | inconclusive [inhibitor, partial curve] | – |
| N#CC1=C(N)OC2=C(C(=O)CC(c3ccccc3)C2)C1c1ccc2c(c1)OCO2 (stereo not given) | inconclusive [inhibitor, single point] | – |
| COc1ccccc1NC(=O)CN1C(=O)CC(c2ccc(C)c(C)c2)=Nc2ccccc21 | active: 23.1 µM | – |
| Cc1[nH]c2ccccc2c1C(=O)C(=O)NCCc1c[nH]c2ccccc12 | inconclusive [inhibitor, partial curve] | – |

| Compound | Potency | activity change, negative = growth inhibition |
| --- | --- | --- |
| O=[N+]([O-])c1ccc(Oc2ccc(Oc3ccc(C(F)(F)F)cn3)cc2)nc1 | inconclusive [inhibitor, partial curve] | – |
| COc1cc(CN2C[C@@H](CO)O[C@@H](n3cnc4c(N5CCN(c6ccccc6)CC5)ncnc43)C2)cc(OC)c1OC | active: 18.4 µM | – |
| O=C(OCC(=O)N1CCCc2ccccc21)c1ccccc1OC(F)F | – | inactive: -19.8% |
| Cc1ccc(C23CC4CC(CC(C(=O)N(C)C)(C4)C2)C3)cc1 | inconclusive [inhibitor, single point] | – |
| CCn1c(Cn2nnc(-c3ccccc3)n2)nnc1SCc1ccc(Cl)c(Cl)c1 | active: 20.6 µM | – |
| Cc1cc(=O)n(CCCc2ccccc2)[nH]1 | – | inactive: -26.2% |
| CC1Oc2ccccc2N(CC(=O)Nc2ccccc2F)C1=O (stereo not given) | – | inactive: 8.07% |
| Cc1cccc(NC(=O)Cn2cnc(S(=O)(=O)N3CCCC3)c2)c1C | inactive | – |
| Cc1nc2ccccc2c(=O)n1/N=C/c1cc(Br)ccc1O | inconclusive [inhibitor, single point] | – |
| CCCc1cc(=O)[nH]c(SCc2nc(-c3ccc(C)cc3)no2)n1 | – | inactive: -17.5% |
| CCOC(=O)c1c[nH]c2c(C(=O)c3ccccc3)cc(Cl)cc2c1=O | inconclusive [inhibitor, single point] | – |
| Cc1nc2ccc(C(=O)N3c4ccccc4CC3C)cc2s1 (stereo not given) | active: 23.1 µM | – |
| CSCCC(NS(=O)(=O)c1ccc2c(c1)OCCO2)C(=O)N(C)Cc1ccccc1F (stereo not given) | inconclusive [inhibitor, single point] | – |
| CCN1CCN(Cc2ccc(NC(=O)c3ccc(C)c(NC(=O)c4ccno4)c3)cc2C(F)(F)F)CC1 | active: 13 µM | – |
| Cc1ccc(C(=O)OC(C)C(=O)Nc2ccc(Cl)cn2)s1 (stereo not given) | inconclusive [inhibitor, single point] | – |
| COc1ccc(CCNC(=O)c2ccc(-n3c(C)cc4c3CCCC4)cc2)cc1OC | inconclusive [inhibitor, single point] | – |
| COc1ccccc1CCNC(=O)Cc1c(C)c2cc3c(C(C)(C)C)coc3c(C)c2oc1=O | active: 25.9 µM | – |
| CCCn1c(CN2CCN(C(=O)OCC)CC2)nc2c1c(=O)n(C)c(=O)n2C | active: 8.2 µM | – |
| CC(=O)Nc1ccc(-c2ccnc3c2CC(C)(C(=O)Nc2cccc(Oc4ccccc4)c2)O3)cc1 (stereo not given) | active: 25.9 µM | – |
| COc1ccc(N2CCN(S(=O)(=O)CCNC(=O)COc3cccc(OC)c3)CC2)cc1 | inactive | – |
| CCOc1ccc(NC(=O)Nc2ccccc2SC)cc1 | inconclusive [inhibitor, single point] | – |
| Nc1ccccc1O | inconclusive [inhibitor, single point] | – |
| CCCSc1ncc(Cl)c(C(=O)Nc2c(C(=O)Nc3ccccc3)oc3ccccc23)n1 | – | inactive: -28.7% |
| COC(=O)[C@]12CCCCC=C1N(Cc1ccc(Cl)cc1Cl)C(=O)[C@H](CC(=O)NCCC(C)C)C2 | inconclusive [inhibitor, single point] | – |

| Compound | Potency | activity change, negative = growth inhibition |
| --- | --- | --- |
| Cc1ccc(S(=O)(=O)CNC(=S)c2ccc3ccccc3c2)cc1 | inconclusive [inhibitor, single point] | – |
| CC(C(=O)Nc1cccc(S(=O)(=O)N2CCOCC2)c1)N1CCN(c2ccc(F)cc2)CC1 (stereo not given) | – | inactive: 6.7% |
| COc1ccc(-c2noc(CCC(=O)NCc3cc(Br)ccc3OC)n2)cc1 | inconclusive [inhibitor, single point] | – |
| CC(C)Oc1ccc(CNC(=O)Nc2ccc3c(c2)N(C)C(=O)c2ccccc2S3)cc1 | inconclusive [inhibitor, single point] | – |
| CCOC(=O)[C@H]1[C@H]2COc3cc(OC)ccc3[C@@H]2N2C(=O)CN(CC3CCCO3)C(=O)[C@@]12C (stereo not given in full) | – | inactive: 0.203% |
| CCCc1cc(=O)oc2cc(C)cc(OC(C)C(=O)NCCN3CCOCC3)c12 (stereo not given) | – | inactive: -17% |
| CCN(CC)CCN(C(=O)c1ccc(S(=O)(=O)N2CCCCC2)cc1)c1nc2cc3c(cc2s1)OCO3 | inconclusive [inhibitor, single point] | – |
| COc1cc(/C=C2\CC/C(=C\c3ccc(OCCO)c(OC)c3)C2=O)ccc1OCCO | inconclusive [inhibitor, single point] | – |
| CCOC(=O)[C@]12CCCC=C1N(CCC1=CCCCC1)C(=O)[C@H](CC(=O)N1CCN(C(=O)C3CC3)CC1)C2 | inconclusive [inhibitor, single point] | – |
| Cc1nn(-c2ncc(C(F)(F)F)cc2Cl)c(=O)n1-c1ccccc1F | – | inactive: 8.09% |
| CCOC(=O)C1=CCN(S(=O)(=O)c2ccc(F)cc2)C1c1ccc(Br)cc1 (stereo not given) | inconclusive [inhibitor, single point] | – |
| CCOc1ccc(C2C3=C(Nc4nc(N)[nH]c(=O)c42)c2ccccc2C3=O)cc1 (stereo not given) | inconclusive [inhibitor, single point] | – |
| Cc1[nH]n(-c2ccccc2)c(=O)c1/C=N/N1C(=O)c2cccc3cccc(c23)C1=O | inconclusive [inhibitor, single point] | – |
| Cc1sc2nc(CN3CCCCC3)nc(N3CCN(C(=O)c4ccco4)CC3)c2c1C | inconclusive [inhibitor, single point] | – |
| Cc1cc(C)n(CCNC(=O)[C@H]2O[C@@H](n3ccc(N)nc3=O)[C@H](O)[C@@H]2O)n1 | – | inactive: 8.9% |
| Cc1cccc(Cn2c(SCc3ccc(C(=O)N4CCC(C)CC4)cc3)nc3ccncc32)c1 | inconclusive [inhibitor, single point] | – |
| CCN(CC)C(=O)COc1ccc2oc(-c3ccco3)cc(=O)c2c1 | – | inactive: -5.29% |
| CC(Oc1ccccc1)C(=O)Nc1cccc(-c2nc3ccccc3[nH]2)c1 (stereo not given) | inconclusive [inhibitor, single point] | – |
| CC1(c2nc3ccccc3[nH]2)CCC(=O)N1Cc1ccccn1 (stereo not given) | – | inactive: -0.763% |
| COc1ccc(/C=N/Nc2nnc(Cc3ccccc3)c(=O)[nH]2)cc1OC | inconclusive [inhibitor, partial curve] | – |
| C=CCN(c1ccccc1Cl)S(=O)(=O)c1cccc(C(=O)NCCc2ccc(OC)cc2)c1 | inconclusive [inhibitor, single point] | – |
| Cc1ccc(S(=O)(=O)Nc2cnc3ccccc3c2)cc1 | inconclusive [inhibitor, partial curve] | – |
